According to PubChem BioAssay AID686979 (National Center for Advancing Translational Sciences (NCATS), 2013):
Hit rate of the full screen: of about 420,000 compounds, about 50,000 (12%) were called active. Inconclusive results, whose numbers are uncertain, are shown with a selection of clear calls. The call rests on the fitted dose curve; in most records, active means well fitted inhibition curve with a large enough effect; inconclusive means small, poorly fitted or top-dose-only effect; inactive means flat fitted curve, though single readings scatter. Potencies of inconclusive entries are left out as doubtful fits.
On the % scale 0 is the no-effect control and ±100 the full control effect; potency means the concentration at half of the fitted maximal effect; tags describe the fitted curve by direction and shape.

Test: qHTS for Inhibitors of human tyrosyl-DNA phosphodiesterase 1 (TDP1): qHTS in cells in presence of CPT; further: nearly all actives have a fitted effect of over 55% in size
Conditions: chicken DT40 Tdp1-/-;hTDP1 cells + 20 nM CPT, ATP luminescence, 48 h; activity change, negative = growth inhibition: at 46.2 µM (top of the series) unless noted
How it was run: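 Chicken DT40 Tdp1-/- cells stably complemented with human TDP1 were seeded at 400 cells/well in medium containing 20 nM camptothecin, exposed to pin-transferred compounds, and grown at 37 °C for at least 48 hr. Viability was read as ATP luminescence.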
With Cc1ccc(S(=O)(=O)N2CCCCC2)cc1NC(=O)COC(=O)c1cccn1C the Potency was inconclusive [inhibitor, single point]. With CC(C)(C)OC(=O)CNC(=O)c1nc[nH]c1C(=O)N1CCc2ccccc2C1 the “activity change, negative = growth inhibition” value was inactive: -16.8%. In the case of CCOc1ccc(C(=O)/C=C/Nc2ccc(S(=O)(=O)Nc3cc(C)nc(C)n3)cc2)cc1, the “activity change, negative = growth inhibition” value is reported as inactive: 6.04%. For Fc1ccc(-c2cn3cc(Cc4ccccc4)sc3n2)cc1, the “activity change, negative = growth inhibition” value was inactive: -23.8%. In the case of CCn1c(SCC(=O)Nc2cccc(S(=O)(=O)N(C)c3ccccc3)c2)nnc1C1CC1, the Potency is reported as inconclusive [inhibitor, single point]. In the case of CCc1ccc2oc(-c3cc(NC(=O)c4cc([N+](=O)[O-])ccc4N4CCOCC4)ccc3Cl)nc2c1, the Potency is reported as inconclusive [inhibitor, single point]. For Cc1cc(C)cc(-n2c(SCC(=O)NCc3ccc4c(c3)OCO4)nc3ccccc3c2=O)c1, the Potency was active: 7.31 µM. With Cc1ccc(Cl)cc1N1CCN(C(=O)c2cc3c(-c4ccccc4F)nn(C)c3s2)CC1 the Potency was inconclusive [inhibitor, single point]. With O=C(NC1CCCC1)C(c1ccncc1)N(Cc1ccco1)C(=O)c1ccc(-c2ccccc2)[nH]1 (stereo not drawn) the Potency was active: 23.1 µM. For COc1ccccc1CNC(=O)COC(=O)COc1ccccc1F, the “activity change, negative = growth inhibition” value was inactive: -21.3%. In the case of COc1ccc(N=Nc2ccc(O)c3ncccc23)cc1, the Potency is reported as active: 2.06 µM. In the case of N#Cc1ccccc1NC(=O)CSc1nnc(N)s1, the “activity change, negative = growth inhibition” value is reported as inactive: 0.63%. With COc1ccc(-n2ncc3c2CC(C)(C)CC3NC(=O)c2ocnc2C)cc1 (stereo not drawn) the Potency was inconclusive [inhibitor, single point]. In the case of COc1ccc(CNC(=O)c2cnc(N3CCOCC3)c3ccccc23)cc1, the Potency is reported as inconclusive [inhibitor, single point]. With O=C(Cn1ncn2c(cc3sccc32)c1=O)NC1CCCC1 the “activity change, negative = growth inhibition” value was inactive: -4.77%. With COc1ccc(C(c2nnnn2Cc2ccccc2)N2CCN(c3nc4ccccc4s3)CC2)cc1 (stereo not drawn) the Potency was inconclusive [inhibitor, single point]. For CCN(CC)S(=O)(=O)c1cc(NC(=O)c2ccc3c(c2)NC(=O)C(C)S3)ccc1C (stereo not drawn), the Potency was active: 20.6 µM. With CCOC(=O)c1cc(-c2ccncc2)nc2c1c(C)nn2-c1ccccn1 the Potency was inconclusive [inhibitor, single point]. With COc1ccccc1CNC(=O)CN1C(=O)C(C)N(c2ccc(C)cc2)C1=O (stereo not drawn) the Potency was inconclusive [inhibitor, full curve, poor fit]. With CN(C)S(=O)(=O)c1ccc(C(=O)NCCc2ccco2)cc1 the “activity change, negative = growth inhibition” value was inactive: -7.56%. With COc1cccc2cc(C(=O)NCC3CCCO3)c(=O)oc12 (stereo not drawn) the “activity change, negative = growth inhibition” value was inactive: -4.37%. For Cc1ccc(C)c(NC(=O)CCc2c(C)nn(-c3ccc(N4CCCCC4)nn3)c2C)c1, the Potency was inconclusive [inhibitor, single point]. With O=C(Nc1ccc2c(c1)OCO2)c1ccc(Cl)cc1Cl the “activity change, negative = growth inhibition” value was inactive: -10.6%. For CC(=O)Nc1nc2ccccc2n1Cc1ccc(Cl)cc1, the Potency was active: 23.1 µM. With Cc1cccc(C)c1-n1nnnc1C1(C)CCC(=O)N1c1ccc(N2CCOCC2)cc1 (stereo not drawn) the Potency was inconclusive [inhibitor, single point]. In the case of Cc1ccc(Oc2c(C(N)=O)cc([N+](=O)[O-])cc2[N+](=O)[O-])cc1, the Potency is reported as active: 5.8 µM. With O=C1COc2ccc(-c3cc(-c4ccccc4)c4c(n3)-c3cc(Cl)ccc3OC4)cc2N1 the Potency was active: 3.26 µM. In the case of Cc1cccc(NC(=O)CCc2c(C)nc3c(c(C)nn3C(C)(C)C)c2C)c1C, the Potency is reported as inconclusive [inhibitor, single point]. For Cc1ccc(C(=O)NCC(=O)N(C)CC(=O)Nc2c(Cl)cccc2Cl)s1, the “activity change, negative = growth inhibition” value was inactive: -39.3%. With CCOc1ccc(NC(=O)CCSc2ccc(C)cc2)cc1 the Potency was inconclusive [inhibitor, single point]. In the case of Cc1ccc2cccc(Oc3ncnc4scc(-c5ccc(Cl)cc5)c34)c2n1, the Potency is reported as inconclusive [inhibitor, single point]. With C=CCNC(=S)NNC(=O)c1csc(C)c1C the “activity change, negative = growth inhibition” value was inactive: -0.24%. For C=CCNc1nc(Nc2ccccc2F)nc(OCC)n1, the Potency was inconclusive [inhibitor, single point]. With Cc1cc(F)ccc1S(=O)(=O)Nc1ncnc2scc(-c3ccc(F)cc3)c12 the “activity change, negative = growth inhibition” value was inactive: 19.5%. In the case of COc1ccc(N2CCN(C(=S)NCCc3ccccc3)CC2)cc1, the Potency is reported as inconclusive [inhibitor, single point]. For O=C(NC1CCN(Cc2ccccc2)CC1)c1cncc(Br)c1, the Potency was inconclusive [inhibitor, single point]. For Cc1ccc(-n2nc(C)c3cc(C(=O)O)sc32)cc1, the Potency was inconclusive [inhibitor, single point]. For CCCC(=O)Nc1ccc(N2CCOCC2)cc1, the “activity change, negative = growth inhibition” value was inactive: -24.4%. With COC(=O)c1ccc2nc(-c3ccc(OC)c(OC)c3)c(CC3CCCCC3)n2c1 the Potency was inconclusive [inhibitor, single point]. In the case of COc1ccc(S(=O)(=O)N2CN3CCN(C3)C2)cc1, the Potency is reported as inconclusive [inhibitor, single point]. For COc1ccc(C(=O)Nc2ccc(N3CCOCC3)cc2)cc1OC, the Potency was inconclusive [inhibitor, partial curve, poor fit]. With CCOc1cc(CNn2cn[nH]c2=S)cc(Cl)c1OCc1ccccc1F the Potency was inconclusive [inhibitor, partial curve]. With CCOC(=O)Nc1ccc2c(c1)N(C(=O)CN1CCN(C)CC1)c1ccccc1S2 the Potency was inconclusive [inhibitor, single point]. With O=C(/C=C/c1ccccc1Cl)Nn1cnc2ccccc2c1=O the Potency was inconclusive [inhibitor, single point]. In the case of CCOc1cccc(-c2nnc3sc(-c4cc(OC)c(OC)c(OC)c4)nn23)c1, the Potency is reported as inconclusive [inhibitor, single point]. For CC1CCc2c(sc3nnn(CC(=O)Nc4ccc(Cl)cc4)c(=O)c23)C1 (stereo not drawn), the Potency was inconclusive [inhibitor, single point]. With CCN(C(=O)c1cn(CC)c(=O)c2cc(OC)c(OC)cc12)c1ccc(C)c(C)c1 the Potency was active: 23.1 µM. In the case of Cc1cccc[n+]1CC(=O)N1c2ccccc2Sc2ccccc21, the Potency is reported as inconclusive [inhibitor, single point]. In the case of O=C(O)CCCC(=O)Nc1ccc(Sc2ccc([N+](=O)[O-])cc2)cc1, the “activity change, negative = growth inhibition” value is reported as inactive: -32.3%. For O=C(NCc1ccc2c(c1)OCO2)c1ccc(CSCc2ccc(Cl)cc2)o1, the Potency was inconclusive [inhibitor, partial curve, poor fit]. For O=C(Nc1ccc(N2CCCCC2)cc1)C1CCCN1S(=O)(=O)c1ccc(F)cc1 (stereo not drawn), the Potency was inconclusive [inhibitor, single point]. In the case of COc1ccccc1NC(=O)c1ccccc1NC(=O)c1ccccn1, the Potency is reported as inconclusive [inhibitor, single point]. With COc1ccc(C(=O)Nc2ccccc2C(=O)Nc2ccccc2C(=O)O)cc1 the Potency was active: 18.4 µM. In the case of O=C(Cc1sc(-c2ccccc2)nc1-c1ccccc1)Nc1ccc(Cl)cc1, the Potency is reported as inconclusive [inhibitor, single point]. With O=C(Nc1sc2c(c1C(=O)O)CCC2)C(=O)N1CCOCC1 the “activity change, negative = growth inhibition” value was inactive: 3.89%. For O=C(Nc1cccc(F)c1F)C1CCN(c2ncccn2)CC1, the “activity change, negative = growth inhibition” value was inactive: -19.5%. For NS(=O)(=O)c1ccc(CCNC(=O)CSc2ccc3ccccc3c2)cc1, the Potency was inconclusive [inhibitor, single point]. In the case of COc1ccc(C(O)Cn2c(=N)n(CCCN(C)C)c3ccccc32)cc1 (stereo not drawn), the Potency is reported as inconclusive [inhibitor, single point]. With COC(=O)C[C@H]1c2cc(C(F)(F)F)ccc2S(=O)(=O)N1Cc1ccc(OC)cc1 the Potency was inconclusive [inhibitor, single point]. For CC(C)(C)[C@H]1C=C(C(=O)NCc2nc3ccccc3[nH]2)O[C@@H](OCc2ccc(CO)cc2)C1, the Potency was active: 20.6 µM. With CSc1cccc(NC(=O)Cn2ncn3c(cc4ccccc43)c2=O)c1 the “activity change, negative = growth inhibition” value was inactive: -3.26%. For CC(C)c1ccc(NC2CCCN(C(=O)CC3CCCC3)C2)cc1 (stereo not drawn), the Potency was active: 20.6 µM. For CCc1nnc(NC(=O)c2cc(Cl)ccn2)s1, the Potency was active: 2.91 µM. In the case of COc1ccc(-c2nc3c(c(SCC(=O)N4CCCCC4)n2)Cc2c(CO)cnc(C)c2O3)cc1, the Potency is reported as active: 2.59 µM. For COC(=O)c1cc(NC(=O)c2ccc3c(c2)NC(=O)c2ccccc2S3)cc(C(=O)OC)c1, the Potency was active: 4.61 µM. With CCOC(=O)Cc1nc(-c2ccc(Cl)cc2)n[nH]1 the “activity change, negative = growth inhibition” value was inactive: -2.49%. With O=C(Nc1ccc(F)cc1)N1CCN(C(=O)c2nsc3ccccc23)CC1 the Potency was inconclusive [inhibitor, single point]. With O=C1C(=O)c2ccc(-c3ccccc3)cc2-c2ccccc21 the Potency was active: 0.92 µM. With COC(=O)c1cc2occc2n1CC(=O)Nc1ccc(C(C)C)cc1 the Potency was inconclusive [inhibitor, single point]. In the case of O=C(NC1(Cc2ccccc2)CCN(CCc2cccs2)C1=O)c1ccccc1 (stereo not drawn), the Potency is reported as active: 25.9 µM. For COc1cccc(-n2nnc(-c3nc(-c4ccccc4F)no3)c2C)c1, the Potency was inconclusive [inhibitor, single point]. In the case of Cc1[nH]c2ccccc2c1/C=C/c1ccnc2ccccc12, the Potency is reported as active: 5.62 µM. With COc1ccccc1NC(=O)c1sc2nc(N3CCOCC3)c3c(c2c1N)CCCC3 the Potency was inconclusive [inhibitor, single point].
